Experimental findings from PubChem BioAssay AID686979 (National Center for Advancing Translational Sciences (NCATS), 2013) are described below.

Screen size: about 420,000 compounds; about 50,000 (12%) were called active. About 26% were inconclusive and are not listed. Calls come from the whole dose curve; as a rule, active = well fitted inhibition curve with a large enough effect; inconclusive = small, poorly fitted or top-dose-only effect; inactive = flat fitted curve, though single readings scatter. Only a part is listed here, and it is no random draw. Where a structure was tested more than once in an assay, its records may differ in their call.
% is set by controls: 0 for no effect and ±100 for the full control effect; potency is the fitted concentration of half-maximal effect.

A short description of this experiment: qHTS for Inhibitors of human tyrosyl-DNA phosphodiesterase 1 (TDP1): qHTS in cells in presence of CPT. Note: nearly all actives have a fitted effect of over 55% in size. The settings on record: chicken DT40 Tdp1-/-;hTDP1 cells + 20 nM CPT, ATP luminescence, 48 h; series mostly up to 46.2 µM; activity change, negative = growth inhibition: at the top concentration. The essentials:
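Chicken DT40 Tdp1-/- cells stably complemented with human TDP1 were seeded at 400 cells/well in medium containing 20 nM camptothecin, exposed to pin-transferred compounds, and grown at 37 °C for at least 48 hr. Viability was read as ATP luminescence.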
In general terms: Quantitative high-throughput screening tests each substance at several concentrations.
Take `N#CC1=C2SCN(c3ccccc3)CN2C(=O)CC1c1ccccc1Cl` (centres undefined): the “activity change, negative = growth inhibition” value is inactive: -16.4%.

With `O=C(O)CC(NC(=O)C12CC3CC(CC(C3)C1)C2)c1cccc(Cl)c1` (centres undefined), the “activity change, negative = growth inhibition” value was inactive: 0.315%.

On to `CC(C)(C(=O)O)c1ccc([C@H](O)CCCN2CCC(C(O)(c3ccccc3)c3ccccc3)CC2)cc1`, for which the “activity change, negative = growth inhibition” value is inactive: -0.0014%.

For the compound `Cc1ccc(CNC(=O)CCCn2nc(C)c3c(C)n(-c4ccccc4)nc3c2=O)cc1`, the “activity change, negative = growth inhibition” value was inactive: -29.3%.

As to `Cc1cccc(NS(=O)(=O)c2coc(C(N)=O)c2)c1C`, the “activity change, negative = growth inhibition” value is inactive: 31.6%.

Turning to `Cc1ccc(C2=NN(C(=O)c3ccccc3F)C(c3ccccc3F)C2)cc1` (centres undefined), the Potency is active: 20.6 µM.

Consider `Cc1ccsc1C(=CCCN1CCC[C@@H](C(=O)O)C1)c1sccc1C`, for which the “activity change, negative = growth inhibition” value is inactive: -9.29%.

Regarding `COc1ccc(/C=N/NC(=S)NCC2CCCO2)cc1` (centres undefined), the “activity change, negative = growth inhibition” value is inactive: 2.54%.

`Cc1cccc(NS(=O)(=O)c2cc(C(=O)N3CCCC3)ccc2Cl)c1`: the “activity change, negative = growth inhibition” value was inactive: -3.97%.

For `COC(OC)c1ccnc(-c2ccc(OC(=O)c3ccccc3)cc2)n1`, the “activity change, negative = growth inhibition” value was inactive: 41.5%.

Turning to `c1cn(CC2(Cn3ccnc3)COC2)cn1`, the “activity change, negative = growth inhibition” value was inactive: 0.124%.

Consider `c1csc(-c2csc3nc(CN4CCOCC4)nc(NCc4ccc5c(c4)OCO5)c23)c1`, for which the Potency was active: 23.1 µM.

Consider `CCCN1C2CCCC1CC(NC(=O)NC1CCCCC1)C2` (centres undefined), for which the “activity change, negative = growth inhibition” value was inactive: 35.8%.

Take `CCCCc1nc(Cl)c(CO)n1Cc1ccc(-c2ccccc2-c2nnn[nH]2)cc1`: the “activity change, negative = growth inhibition” value was inactive: 18.1%.

Consider `Nc1nonc1C(=O)OCC(=O)N1CCCCC1`, for which the “activity change, negative = growth inhibition” value is inactive: 30.1%.

As for `C=CCc1ccccc1OCC(O)CN1CCN(Cc2ccc3c(c2)OCO3)CC1` (centres undefined), the “activity change, negative = growth inhibition” value was inactive: -22.1%.

For `Cn1c(=O)[nH]c(=O)c2c1nc(N1CCCCC1)n2CCCSc1nc2ccccc2s1`, the Potency is active: 13 µM.

With `COc1cccc(NC(=O)CSc2nc3ccccc3n2C)c1`, the “activity change, negative = growth inhibition” value was inactive: -23.1%.

On to `CSCCC(NC(=O)c1ccc(Cl)cc1)C(=O)OCC(C)=O` (centres undefined), for which the “activity change, negative = growth inhibition” value was inactive: 34.2%.

As to `O=C(NNC(=O)C1CC=CCC1)c1ccccc1Br` (centres undefined), the “activity change, negative = growth inhibition” value is inactive: 34.7%.

Consider `COc1ccccc1NC(=S)N1CCN(c2nc(-c3ccccc3)cs2)CC1`, for which the Potency is active: 18.4 µM.

As to `CC1OC(CC(=O)O)CC2=C1C(=O)c1c(O)cccc1C2=O` (centres undefined), the Potency was active: 0.103 µM.

For `Cc1nn(C)c(Cl)c1C(=O)NCC(=O)O`, the “activity change, negative = growth inhibition” value is inactive: 42.3%.

Regarding `CCOC(=O)/C=c1/s/c(=C/c2ccc3cc(OC)ccc3c2)c(=O)n1CC(=O)NCC1CCCO1` (centres undefined), the Potency is active: 16.4 µM.

On to `OCC[C@H]1C[C@H](O)[C@@H](O)[C@]2(OCCc3ccccc32)O1`, for which the “activity change, negative = growth inhibition” value was inactive: -1.6%.

In the case of `COc1ccc(-n2nc(C(=O)NCC(=O)NCCC3=CCCCC3)c3ccccc3c2=O)c(OC)c1`, the “activity change, negative = growth inhibition” value was inactive: 3.55%.

`COc1ccccc1NC(=O)C(C/C=C(\C)Cl)C(C)=O` (centres undefined): the “activity change, negative = growth inhibition” value was inactive: 6.38%.

`O=C(NCCc1ccccc1)c1ccc(CS(=O)(=O)c2ccc(Br)cc2)o1`: the “activity change, negative = growth inhibition” value is inactive: -21.4%.

As to `Cc1c(CC(=O)NCCC(=O)O)c(=O)oc2cc3occ(-c4ccccc4)c3cc12`, the “activity change, negative = growth inhibition” value is inactive: 59.1%.
